# The list shows a part of the results.
# B1: Siglec-7-SA-PE-180 (Homo sapiens), Q9Y286 (protein)
# chain: MLLLLLLPLLWGRERVEGQKSNRKDYSLTMQSSVTVQEGMCVHVRCSFSYPVDSQTDSDPVHGYWFRAGNDISWKAPVATNNPAWAVQEETRDRFHLLGDPQTKNCTLSIRDARMSDAGRYFFRMEKGNIKWNYKYDQLSVNVTALTHRPNILIPGTLESGCFQNLTCSVPWACEQGTPPMISWMGTSVSPLHPSTTRSSVLTLIPQPQHHGTSLTCQVTLPGAGVTTNRTIQLNVSYPPQNLTVTVFQGEGTASTALGNSSSLSVLEGQSLRLVCAVDSNPPARLSWTWRSLTLYPSQPSNPLVLELQVHLGDEGEFTCRAQNSLGSQHVSLNLSLQQEYTGKMRPVSGVLLGAVGGAGATALVFLSFCVIFIVVRSCRKKSARPAADVGDIGMKDANTIRGSASQGNLTESWADDNPRHHGLAAHSSGEEREIQYAPLSFHKGEPQDLSGQEATNNEYSEIKIPK
# What was measured:
# Assay in all cases: glycan array binding signal (z-score within array); higher = stronger binding
# Conditions in all cases: glycan notation: IUPAC condensed, linker removed
# [1] = target: Fuc(a1-3)[Gal(b1-4)]GlcNAc6S
# Summary of the method: (§1)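 Negative Z-scores can be read as non-binding. The Z-score is calculated within each array and then averaged across arrays of one protein sequence at different concentrations or buffers and across linkers. Arrays, 3228 in all, were curated from the Consortium for Functional Glycomics database and kept only where the protein sequence was available.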
# [2] = target: Fuc(a1-3)[Gal3S(b1-4)]Glc
# Summary of the method: as §1
# [3] = target: Fuc(a1-3)[Gal3S(b1-4)]GlcNAc
# Summary of the method: as §1
# [4] = target: Fuc(a1-3)[Gal3S(b1-4)]GlcNAc6S
# Summary of the method: as §1
# [5] = target: Fuc(a1-3)[GalNAc(b1-4)]GlcNAc
# Summary of the method: as §1
# [6] = target: Fuc(a1-3)[GalNAc(b1-4)]GlcNAc6S
# Summary of the method: as §1
# [7] = target: Fuc(a1-3)[GalNAc3S(b1-4)]GlcNAc
# Summary of the method: as §1
# Fuc(a1-4)GlcNAc = target: Fuc(a1-4)GlcNAc
# Summary of the method: as §1
# Fuc(b1-3)GlcNAc = target: Fuc(b1-3)GlcNAc
# Summary of the method: as §1
# Gal(a1-2)Gal = target: Gal(a1-2)Gal
# Summary of the method: as §1
# Gal(a1-3)Gal = target: Gal(a1-3)Gal
# Summary of the method: as §1
# Gal(a1-3)Gal(b1-3)GlcNAc = target: Gal(a1-3)Gal(b1-3)GlcNAc
# Summary of the method: as §1
# [8] = target: Gal(a1-3)Gal(b1-3)GlcNAc(b1-2)Man
# Summary of the method: as §1
# [9] = target: Gal(a1-3)Gal(b1-3)GlcNAc(b1-2)Man(a1-3)[Gal(a1-3)Gal(b1-3)GlcNAc(b1-2)Man(a1-6)]Man(b1-4)GlcNAc(b1-4)GlcNAc
# Summary of the method: as §1
# [10] = target: Gal(a1-3)Gal(b1-3)GlcNAc(b1-3)GalNAc
# Summary of the method: as §1
# [11] = target: Gal(a1-3)Gal(b1-3)GlcNAc(b1-6)GalNAc
# Summary of the method: as §1
# [12] = target: Gal(a1-3)Gal(b1-3)[Fuc(a1-4)]GlcNAc(b1-2)Man(a1-3)[Gal(a1-3)Gal(b1-3)[Fuc(a1-4)]GlcNAc(b1-2)Man(a1-6)]Man(b1-4)GlcNAc(b1-4)GlcNAc
# Summary of the method: as §1
# Gal(a1-3)Gal(b1-4)Glc = target: Gal(a1-3)Gal(b1-4)Glc
# Summary of the method: as §1
# Gal(a1-3)Gal(b1-4)GlcNAc = target: Gal(a1-3)Gal(b1-4)GlcNAc
# Summary of the method: as §1
# [13] = target: Gal(a1-3)Gal(b1-4)GlcNAc(b1-2)Man
# Summary of the method: as §1
# [14] = target: Gal(a1-3)Gal(b1-4)GlcNAc(b1-2)Man(a1-3)[Gal(a1-3)Gal(b1-4)GlcNAc(b1-2)Man(a1-6)]Man(b1-4)GlcNAc(b1-4)GlcNAc
# Summary of the method: as §1
# [15] = target: Gal(a1-3)Gal(b1-4)GlcNAc(b1-3)GalNAc
# Summary of the method: as §1
# [16] = target: Gal(a1-3)Gal(b1-4)GlcNAc(b1-6)GalNAc
# Summary of the method: as §1
# [17] = target: Gal(a1-3)Gal(b1-4)[Fuc(a1-3)]GlcNAc
# Summary of the method: as §1
# [18] = target: Gal(a1-3)Gal(b1-4)[Fuc(a1-3)]GlcNAc(b1-2)Man(a1-3)[Gal(a1-3)Gal(b1-4)[Fuc(a1-3)]GlcNAc(b1-2)Man(a1-6)]Man(b1-4)GlcNAc(b1-4)GlcNAc
# Summary of the method: as §1
# Gal(a1-3)GalNAc = target: Gal(a1-3)GalNAc
# Summary of the method: as §1
# [19] = target: Gal(a1-3)[Gal(a1-4)]Gal(b1-4)GlcNAc
# Summary of the method: as §1
# [20] = target: Gal(a1-4)Gal(b1-3)GlcNAc(b1-2)Man(a1-3)[Gal(a1-4)Gal(b1-3)GlcNAc(b1-2)Man(a1-6)]Man(b1-4)GlcNAc(b1-4)GlcNAc
# Summary of the method: as §1
# Gal(a1-4)Gal(b1-4)Glc = target: Gal(a1-4)Gal(b1-4)Glc
# Summary of the method: as §1
# Gal(a1-4)Gal(b1-4)GlcNAc = target: Gal(a1-4)Gal(b1-4)GlcNAc
# Summary of the method: as §1
# [21] = target: Gal(a1-4)Gal(b1-4)GlcNAc(b1-2)Man(a1-3)[Gal(a1-4)Gal(b1-4)GlcNAc(b1-2)Man(a1-6)]Man(b1-4)GlcNAc(b1-4)GlcNAc
# Summary of the method: as §1
# [22] = target: Gal(a1-4)Gal(b1-4)GlcNAc(b1-3)Gal(b1-4)Glc
# Summary of the method: as §1
# Gal(a1-4)GlcNAc = target: Gal(a1-4)GlcNAc
# Summary of the method: as §1
# Gal(a1-6)Glc = target: Gal(a1-6)Glc
# Summary of the method: as §1
# Gal(b1-2)Gal = target: Gal(b1-2)Gal
# Summary of the method: as §1
# Gal(b1-3)Gal = target: Gal(b1-3)Gal
# Summary of the method: as §1
# Gal(b1-3)Gal(b1-4)GlcNAc = target: Gal(b1-3)Gal(b1-4)GlcNAc
# Summary of the method: as §1
# [23] = target: Gal(b1-3)Gal(b1-4)GlcNAc(b1-2)Man(a1-3)[Gal(b1-3)Gal(b1-4)GlcNAc(b1-2)Man(a1-6)]Man(b1-4)GlcNAc(b1-4)GlcNAc
# Summary of the method: as §1
binder,measurement,setting,value
B1,glycan array binding signal (z-score),[1],-0.192
same,glycan array binding signal (z-score),[2],-0.086
same,glycan array binding signal (z-score),[3],-0.046
same,glycan array binding signal (z-score),[4],-0.186
same,glycan array binding signal (z-score),[5],-0.069
same,glycan array binding signal (z-score),[6],-0.045
same,glycan array binding signal (z-score),[7],-0.158
same,glycan array binding signal (z-score),Fuc(a1-4)GlcNAc,0.988
same,glycan array binding signal (z-score),Fuc(b1-3)GlcNAc,-0.145
same,glycan array binding signal (z-score),Gal(a1-2)Gal,-0.097
same,glycan array binding signal (z-score),Gal(a1-3)Gal,-0.332
same,glycan array binding signal (z-score),Gal(a1-3)Gal(b1-3)GlcNAc,-0.363
same,glycan array binding signal (z-score),[8],-0.201
same,glycan array binding signal (z-score),[9],-0.122
same,glycan array binding signal (z-score),[10],-0.49
same,glycan array binding signal (z-score),[11],-0.241
same,glycan array binding signal (z-score),[12],-0.1
same,glycan array binding signal (z-score),Gal(a1-3)Gal(b1-4)Glc,-0.334
same,glycan array binding signal (z-score),Gal(a1-3)Gal(b1-4)GlcNAc,-0.394
same,glycan array binding signal (z-score),[13],-0.286
same,glycan array binding signal (z-score),[14],-0.053
same,glycan array binding signal (z-score),[15],-0.37
same,glycan array binding signal (z-score),[16],-0.106
same,glycan array binding signal (z-score),[17],-0.216
same,glycan array binding signal (z-score),[18],0.009
same,glycan array binding signal (z-score),Gal(a1-3)GalNAc,-0.153
same,glycan array binding signal (z-score),[19],0.374
same,glycan array binding signal (z-score),[20],-0.291
same,glycan array binding signal (z-score),Gal(a1-4)Gal(b1-4)Glc,-0.367
same,glycan array binding signal (z-score),Gal(a1-4)Gal(b1-4)GlcNAc,-0.174
same,glycan array binding signal (z-score),[21],-0.102
same,glycan array binding signal (z-score),[22],-0.225
same,glycan array binding signal (z-score),Gal(a1-4)GlcNAc,-0.247
same,glycan array binding signal (z-score),Gal(a1-6)Glc,-0.141
same,glycan array binding signal (z-score),Gal(b1-2)Gal,-0.016
same,glycan array binding signal (z-score),Gal(b1-3)Gal,-0.057
same,glycan array binding signal (z-score),Gal(b1-3)Gal(b1-4)GlcNAc,-0.288
same,glycan array binding signal (z-score),[23],-0.363

# Source: the supplement of paper PMC8728848
